Some of the results follow. Most values come without repeats; read them as rough.
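Also: cells treated in 1,536-well plates, then fixed and DAPI-stained, with nuclei counted from automated high-throughput microscope images.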

The test system of the experiment is COLO792. Briefly: cell count relative to DMSO control; melanoma cells; higher = more viable cells. As to conditions: library dose: standard library concentration; 72 h.
`Nc1ncn([C@H]2C[C@H](O)[C@@H](CO)O2)c(=O)n1` [decitabine] + C#Cc1cccc(Nc2ncnc3cc(OCCOC)c(OCCOC)cc23)c1 [erlotinib] (first compound 0.5 µM, partner dose 4 µM) returned a cell count of 46.3%.
Then `CC(=O)O[C@@]12CO[C@@H]1C[C@H](O)[C@@]1(C)C(=O)[C@H](O)C3=C(C)[C@@H](OC(=O)[C@H](O)[C@@H](NC(=O)OC(C)(C)C)c4ccccc4)C[C@@](O)([C@@H](OC(=O)c4ccccc4)[C@H]21)C3(C)C` [Docetaxel] + OCc1c[nH]c2ccccc12 [Indole-3-carbinol] (first compound 0.0005 µM, partner dose 4 µM), with 25.4%; and `CO[C@H]1C[C@@H]2CC[C@@H](C)[C@@](O)(O2)C(=O)C(=O)N2CCCC[C@H]2C(=O)O[C@H]([C@H](C)C[C@@H]2CC[C@@H](OCCO)[C@H](OC)C2)CC(=O)[C@H](C)/C=C(\C)[C@@H](O)[C@@H](OC)C(=O)[C@H](C)C[C@H](C)/C=C/C=C/C=C/1C` [everolimus] + COc1cc(Nc2ncc(F)c(Nc3ccc4c(n3)NC(=O)C(C)(C)O4)n2)cc(OC)c1OC [Tamatinib] (first compound 0.1 µM, partner dose 2 µM), with 32.2%.
To `Nc1ncn([C@H]2C[C@H](O)[C@@H](CO)O2)c(=O)n1` [decitabine] + CN(C)S(=O)(=O)c1ccc2c(c1)/C(=C/c1cc3c([nH]1)CCCC3)C(=O)N2 [SU6656] (first compound 0.5 µM, partner dose 2 µM) belongs 57.6%.
Then `CO[C@H]1C[C@@H]2CC[C@@H](C)[C@@](O)(O2)C(=O)C(=O)N2CCCC[C@H]2C(=O)O[C@H]([C@H](C)C[C@@H]2CC[C@@H](OCCO)[C@H](OC)C2)CC(=O)[C@H](C)/C=C(\C)[C@@H](O)[C@@H](OC)C(=O)[C@H](C)C[C@H](C)/C=C/C=C/C=C/1C` [everolimus] + COc1cc2ncnc(Nc3ccc(Oc4ccccc4)cc3)c2cc1OC [SrcI1] (first compound 0.1 µM, partner dose 10 µM), with 47.5%.
In the case of `CO[C@H]1C[C@@H]2CC[C@@H](C)[C@@](O)(O2)C(=O)C(=O)N2CCCC[C@H]2C(=O)O[C@H]([C@H](C)C[C@@H]2CC[C@@H](OCCO)[C@H](OC)C2)CC(=O)[C@H](C)/C=C(\C)[C@@H](O)[C@@H](OC)C(=O)[C@H](C)C[C@H](C)/C=C/C=C/C=C/1C` [everolimus] + COc1ccc(-c2ccc3c(N4CCOCC4)nc(N4C[C@@H](C)O[C@@H](C)C4)nc3n2)cc1CO [KU0063794] (first compound 0.1 µM, partner dose 0.1 µM), the cell count was 37.2%.
In turn, `CC(=O)c1c(C)c2cnc(Nc3ccc(N4CCNCC4)cn3)nc2n(C2CCCC2)c1=O` [palbociclib] + COc1ccc(Cl)c(Nc2nc3ccccc3nc2NS(=O)(=O)c2cccc(NC(=O)C(C)(C)N)c2)c1 [XL147] (first compound 0.2 µM, partner dose 4 µM) gave a cell count of 61.3%.
Then `CC(=O)c1c(C)c2cnc(Nc3ccc(N4CCNCC4)cn3)nc2n(C2CCCC2)c1=O` [palbociclib] + COc1ccc2c(c1)CCC1C2CCC2(C)C(NCCCCCCN3C(=O)C=CC3=O)CCC12 [U73122] (first compound 0.2 µM, partner dose 2 µM), with 124%; and `Nc1ccn([C@@H]2O[C@H](CO)[C@@H](O)C2(F)F)c(=O)n1` [gemcitabine] + CO[C@@H]1[C@H](N(C)C(=O)c2ccccc2)C[C@H]2O[C@]1(C)n1c3ccccc3c3c4c(c5c6ccccc6n2c5c31)C(=O)NC4 [Midostaurin] (first compound 0.002 µM, partner dose 0.4 µM), with 51.3%; and `Nc1ccn([C@@H]2O[C@H](CO)[C@@H](O)C2(F)F)c(=O)n1` [gemcitabine] + Cc1nc(Nc2ncc(C(=O)Nc3c(C)cccc3Cl)s2)cc(N2CCN(CCO)CC2)n1 [dasatanib] (first compound 0.002 µM, partner dose 0.02 µM), with 36.6%.
`CC(=O)O[C@@]12CO[C@@H]1C[C@H](O)[C@@]1(C)C(=O)[C@H](O)C3=C(C)[C@@H](OC(=O)[C@H](O)[C@@H](NC(=O)OC(C)(C)C)c4ccccc4)C[C@@](O)([C@@H](OC(=O)c4ccccc4)[C@H]21)C3(C)C` [Docetaxel] + Cc1cc(Nc2cc(N3CCN(C)CC3)nc(/C=C/c3ccccc3)n2)n[nH]1 [ENMD2076] (first compound 0.0005 µM, partner dose 0.2 µM) registered a cell count of 20.1%.
Compound `CO[C@H]1C[C@@H]2CC[C@@H](C)[C@@](O)(O2)C(=O)C(=O)N2CCCC[C@H]2C(=O)O[C@H]([C@H](C)C[C@@H]2CC[C@@H](OCCO)[C@H](OC)C2)CC(=O)[C@H](C)/C=C(\C)[C@@H](O)[C@@H](OC)C(=O)[C@H](C)C[C@H](C)/C=C/C=C/C=C/1C` [everolimus] + NCC(=O)Nc1ccc(-n2nc(C(F)(F)F)cc2-c2ccc3c(ccc4ccccc43)c2)cc1 [OSU03012] (first compound 0.1 µM, partner dose 5 µM) yielded a cell count of 56.2%.
For `CC(=O)c1c(C)c2cnc(Nc3ccc(N4CCNCC4)cn3)nc2n(C2CCCC2)c1=O` [palbociclib] + Oc1cc(-c2nc(-c3ccccc3)[nH]c2-c2ccncc2)ccc1Cl [L779450] (first compound 0.2 µM, partner dose 1 µM), the cell count is 55%.
Then `Nc1ccn([C@@H]2O[C@H](CO)[C@@H](O)C2(F)F)c(=O)n1` [gemcitabine] + CC1(C)NC(=O)N(c2ccc([N+](=O)[O-])c(C(F)(F)F)c2)C1=O [nilutamide] (first compound 0.002 µM, partner dose 5 µM), with 65.7%; and `CO[C@H]1C[C@@H]2CC[C@@H](C)[C@@](O)(O2)C(=O)C(=O)N2CCCC[C@H]2C(=O)O[C@H]([C@H](C)C[C@@H]2CC[C@@H](OCCO)[C@H](OC)C2)CC(=O)[C@H](C)/C=C(\C)[C@@H](O)[C@@H](OC)C(=O)[C@H](C)C[C@H](C)/C=C/C=C/C=C/1C` [everolimus] + C=CCNC1=C2C[C@@H](C)C[C@H](OC)[C@H](O)[C@@H](C)/C=C(\C)[C@H](OC(N)=O)[C@@H](OC)/C=C\C=C(/C)C(=O)NC(=CC1=O)C2=O [Tanespimycin] (first compound 0.1 µM, partner dose 0.01 µM), with 36.2%; and `CC(=O)O[C@@]12CO[C@@H]1C[C@H](O)[C@@]1(C)C(=O)[C@H](O)C3=C(C)[C@@H](OC(=O)[C@H](O)[C@@H](NC(=O)OC(C)(C)C)c4ccccc4)C[C@@](O)([C@@H](OC(=O)c4ccccc4)[C@H]21)C3(C)C` [Docetaxel] + CC1(C)NC(=O)N(c2ccc([N+](=O)[O-])c(C(F)(F)F)c2)C1=O [nilutamide] (first compound 0.0005 µM, partner dose 5 µM), with 16.2%.
In turn, `CC(=O)c1c(C)c2cnc(Nc3ccc(N4CCNCC4)cn3)nc2n(C2CCCC2)c1=O` [palbociclib] + NCC(=O)Nc1ccc(-n2nc(C(F)(F)F)cc2-c2ccc3c(ccc4ccccc43)c2)cc1 [OSU03012] (first compound 0.2 µM, partner dose 5 µM) returned a cell count of 40.8%.
`Nc1nc(F)nc2c1ncn2[C@@H]1O[C@H](CO)[C@@H](O)[C@@H]1O` [fludarabine] + Nc1cccc2c1CN(C1CCC(=O)NC1=O)C2=O [lenalidomide] (first compound 1 µM, partner dose 5 µM) registered a cell count of 54.5%.
Then `CC(=O)O[C@@]12CO[C@@H]1C[C@H](O)[C@@]1(C)C(=O)[C@H](O)C3=C(C)[C@@H](OC(=O)[C@H](O)[C@@H](NC(=O)OC(C)(C)C)c4ccccc4)C[C@@](O)([C@@H](OC(=O)c4ccccc4)[C@H]21)C3(C)C` [Docetaxel] + Oc1cc(-c2nc(-c3ccccc3)[nH]c2-c2ccncc2)ccc1Cl [L779450] (first compound 0.0005 µM, partner dose 1 µM), with 22.6%.
The compound `Nc1ncn([C@H]2C[C@H](O)[C@@H](CO)O2)c(=O)n1` [decitabine] + CC1(C)NC(=O)N(c2ccc([N+](=O)[O-])c(C(F)(F)F)c2)C1=O [nilutamide] (first compound 0.5 µM, partner dose 5 µM) had a cell count of 94.9%.
Then `CC(=O)O[C@@]12CO[C@@H]1C[C@H](O)[C@@]1(C)C(=O)[C@H](O)C3=C(C)[C@@H](OC(=O)[C@H](O)[C@@H](NC(=O)OC(C)(C)C)c4ccccc4)C[C@@](O)([C@@H](OC(=O)c4ccccc4)[C@H]21)C3(C)C` [Docetaxel] + CN(NC(=O)CC(=O)NN(C)C(=S)c1ccccc1)C(=S)c1ccccc1 [STA4783] (first compound 0.0005 µM, partner dose 0.03 µM), with 16.3%; and `CC(=O)O[C@@]12CO[C@@H]1C[C@H](O)[C@@]1(C)C(=O)[C@H](O)C3=C(C)[C@@H](OC(=O)[C@H](O)[C@@H](NC(=O)OC(C)(C)C)c4ccccc4)C[C@@](O)([C@@H](OC(=O)c4ccccc4)[C@H]21)C3(C)C` [Docetaxel] + O=C(O)[C@@H]1[O][Sb](=[O])([O][Sb]2(=[O])[O][C@H]([C@H](O)CO)[C@H](O)[C@H](C(=O)O)[O]2)[O][C@H]([C@H](O)CO)[C@@H]1O [stibogluconate] (first compound 0.0005 µM, partner dose 10 µM), with 16.9%.

Values taken from the supplement of paper PMC4604168 (melanoma cell lines).
